Source: the supplement of paper PMC11417369
The other results are listed elsewhere or left out.

system: PfHDP1 homeodomain (GST-tagged); experiment: gcPBM binding intensity (ln(normalized median fluorescence intensity)); higher = stronger DNA binding
How it was run: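 For binding intensity, the highest Masliner-normalised natural-log median intensity across replicate spots of either probe orientation was taken. Protein bound to the array was stained with Alexa488 anti-GST antibody and scanned at 488 nm. The protein, GST-tagged P. falciparum DNA-binding domains from E. coli at about 25 μg on average, had been applied for 1 h to an Agilent 4 × 180k array of primer-extended double-stranded 36-bp intergenic genomic probes and negative controls.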

| Sequence | gcPBM binding intensity (ln) |
| --- | --- |
| TTATATATAGATCACACACACACACCGGTTTTAAAA [CACACA_site4220] | 6.77 |
| ATTCTAATTAGTAAAGTGCAGATAAAATGATGCCCT [GTGCAC_site9578] | 7.14 |
| TTTTTCACATCTATAAATCATCTAATCAATATTTTT [GTGCAC_negctrl_site444] | 6.19 |
| AATATATTTTGATATGAACAATTAATAATTTCAAAT [GTGCAC_negctrl_site170] | 6.27 |
| GGTTCTAAAAAGGGAAGTACATGGAAAAATATAAAT [XGTACX_site4639] | 6.75 |
| ATCGTTATATAATGTTGTACTTGTTATATATATATA [XGTACX_site7582] | 8.84 |
| GCATGCACGGAAAAAAGTACATATATAAATTTGGTT [XGTACX_site3393] | 8.65 |
| AAAATTTAGCAAAGGTGTACAAAAGATAATTAGAGT [XGTACX_site3467] | 7.69 |
| TTTTTTAAATATATTTGTACATATGAAATAAAGATA [XGTACX_site3841] | 6.74 |
| AAAATTATTATGAAAAGTACAAATATGTAAACATAC [XGTACX_site5517] | 6.24 |
| TTCATTTATATAATCACACATTTTATCATCTATGTT [CACACA_site4327] | 6.79 |
| ATATGTTTATTTATTTGTACTTATCATATAATAACA [XGTACX_site5486] | 6.38 |
| TGTATATTTTAGTGATGTACTAATATTATTACTAAT [XGTACX_site3952] | 6.21 |
| TTAGAAAGAATGTATTGTACATATATATTATATATA [XGTACX_site7045] | 6.43 |
| TGCTTAGCACACTATCTACTTCCTTTGTTTCATAAA [GTGCAC_negctrl_site495] | 6.9 |
| TTTTTTTTTAATAAAATTATAATAAATATGAAATTA [XGTACX_negctrl_site369] | 6.23 |
| ATATATATATATATATGTACACATATATATACTCAC [XGTACX_site8043] | 9.4 |
| TGAGTATATAAATACACACACATATATATATTTTAA [CACACA_site5130] | 6.49 |
| TTTTATTTTTAAGGATGTACTCAATTGTTTATATAC [XGTACX_site3965] | 6.2 |
| ATTAAAATCATATACACACCCATATATATATATATA [CACACA_site5050] | 9.27 |
| ATACATATCTACCTATGTACATAATACAACAAAGAT [XGTACX_site323] | 7.08 |
| GAATAAATACCGGTGTGTACTTAAATCATTCACGAA [XGTACX_site3174] | 6.49 |

| Sequence | gcPBM binding intensity (ln) |
| --- | --- |
| ATTTTATATACAAAATGTACATATTTATTATATATG [XGTACX_site6732] | 6.63 |
| GCACATATGAATATAATACACACTTGTATTATTAAT [CACACA_site1841] | 6.59 |
| AAGGATACGCAAAAATGTACAAAATGCTTATAAATA [XGTACX_site984] | 6.31 |
| GGAGCTATCTCCTGCACACACAATTTTTTTTTTTTT [CACACA_site2240] | 7.52 |
| ATGCATAAATTTTGAAGTACAAAAAAAAAAAATAAA [XGTACX_site7282] | 6.45 |
| AAATGAGAAGAAATACGTACATATAATAAAATAATT [XGTACX_site4439] | 6.64 |
| ATACATATATAAATACGTACATATATAATTATATAT [XGTACX_site8178] | 6.71 |
| TTATATATCTATAATACACACATAATAATATATTTA [CACACA_site7423] | 6.55 |
| GCTACGTAAAAAATATGTACATATGAAATATTTTGC [XGTACX_site5111] | 6.5 |
| TCTGTAAAGTAATGGACACACAATATATCCATTTAT [CACACA_site1536] | 6.31 |
| TTTCATTGGTTTATAAAATTATGAGATCTTAAAGAC [CACACA_negctrl_site1484] | 6.39 |
| ATATATATATATATATGTACATATATTTATATTTAT [XGTACX_site6179] | 9.37 |
| GAATAATATGGACATACACACATATACATACAGATA [CACACA_site5200] | 6.63 |
| AAATAAAAAAAATTTGCACACCTTCAAAGTAATATA [CACACA_site1583] | 10.2 |
| CATACAGTATTATACTGTACCCATACAAAAAAATAT [XGTACX_site6130] | 6.85 |
| CTTATTTAAGAGTATGAACACACATCATACACATAT [CACACA_site9205] | 6.57 |
| TTTTTAATATTCTATGCATGCATCGCATATTTGGTT [TGCATGCA_site1004] | 6.55 |
| TTAACATTATATGAAGGTACAGAAAAAAAAAAATTA [XGTACX_site8530] | 6.16 |
| CATGTAATATTAAACACACACTCATATAACTCAATA [CACACA_site4212] | 6.34 |
| CACATATACTTCTGTGCACACGAATATTTTTCTTCT [CACACA_site1408] | 11.2 |
| AAAATATAATATAATGCACACATAAACAAAAAAAAA [CACACA_site8161] | 10.1 |
| TTTTATTTAACTCATAATTTTTTAAAAAACAATTAT [XGTACX_negctrl_site19] | 6.37 |

| Sequence | gcPBM binding intensity (ln) |
| --- | --- |
| TTTTTTTTTTTTTTGGGTACATAATAATAACAAGTG [XGTACX_site1034] | 6.52 |
| AATGACCATTTTTAAAATTACAAATACATACAACTG [TGCATGCA_negctrl_site420] | 6.55 |
| AATGTCAATTTTAATAGTACACAAATATATATATAT [XGTACX_site521] | 8.96 |
| AAGTATTATTATAAGACACACATGTATTTAAGTATA [CACACA_site4922] | 6.4 |
| AATACATATTCAAAGGTGCAAAATAAAAATATACAT [GTGCAC_site9743] | 9.87 |
| TTATAATAAGATTGTTGTACTTATATTCCTTCTATA [XGTACX_site3173] | 6.36 |
| TCGTTTCATATTTATCATGAGATAATCACACGAACA [TGCATGCA_negctrl_site497] | 6.32 |
| TGTTTTGTATATATAGCATGCAGTAAGGGAAAAAAA [TGCATGCA_site652] | 7.53 |
| TAGTTATAAGAGTTACAAAGAATACCGGAAATATAG [CACACA_negctrl_site1829] | 6.78 |
| GTGTGCTTTTTACGAGTGCAAGTATTTTGGTGGTTA [GTGCAC_site9496] | 7.89 |
| GTACACATATAATATACACACAACAAATATGCACAT [CACACA_site1010] | 10.6 |
| TTAAGAATATCTACATGTACATACCAAAGAAATACA [XGTACX_site3125] | 6.57 |
| TTTTATTCCTATTTATTTATATTTTTGTCTTATATC [CACACA_negctrl_site125] | 6.36 |
| ATGAACAAAATGTAATGTACGAATAATTATTCATAT [XGTACX_site4812] | 6.62 |
| GGAATAATATAAAACACACACATAAATATAAATATA [CACACA_site3376] | 6.77 |
| TAATTTTTTTTTTTTTTTTTTTTTTTTTTTTTCCTT [CACACA_negctrl_site1095] | 5.85 |
| TAATTTTTATTTATAATAATATATGACATATATCCA [XGTACX_negctrl_site359] | 6.24 |
| AAAAAAAAGTTCTACACACACAAAAAAATATTTTTT [CACACA_site2309] | 6.5 |
| TATAGACAAACACATACATGCATACATACATACATA [TGCATGCA_site273] | 6.69 |
| TCTGTGCACGCATGAAGTACAAAAAAGGTTTCCAGT [XGTACX_site5049] | 10.3 |
| CTATATACTAAATGCACACTTATATATTTATATATA [CACACA_site2454] | 10.4 |
| TATATTTTTTTAATATGTACATATATATATAAAACA [XGTACX_site2171] | 6.42 |

| Sequence | gcPBM binding intensity (ln) |
| --- | --- |
| ATGATCATAAGACACACACACAAAAAAAAAAAAAAA [CACACA_site6936] | 6.49 |
| CATATATATATATATTGTACAAGATTGTTTTTTTAT [XGTACX_site3913] | 6.84 |
| TTTAAAAAAATATATACACACATATATATATATATA [CACACA_site617] | 9.36 |
| AATTAACAAAGACACACACACACACGCACAAAAAAA [CACACA_site6388] | 7.33 |
| CTCCATATGAAACACACACACAAATGAAAAAAATAT [CACACA_site3018] | 7.01 |
| ATAGAAATAAAATAAAATAAAAAAAAAATAATGAAA [CACACA_negctrl_site1565] | 6.49 |
| TGAATTATAAATTATAGTACTTTATAATATGAACAT [XGTACX_site2317] | 6.42 |
| ATATATAATAAATACACACACATGTATTTATAAATA [CACACA_site5135] | 6.8 |
| ATATAAATAAATTAGTGAAAAAAAAAAAATTTTTTT [CACACA_negctrl_site945] | 6.36 |
| TATTACATACATATCTGTACATATATTAATGCACAA [XGTACX_site3315] | 9.95 |
| TATTAATGCAAATGTTATATGTGCATACATAAATGT [CACACA_negctrl_site790] | 10.9 |
| AAAAATATTAAAAAAGGTACACAGCATATCTCTTTT [XGTACX_site65] | 6.03 |
| AAGAGTTAAAAAAATACACACATATAGATTTTTTTA [CACACA_site7018] | 6.28 |
| ATAAATAAAAAAGAAAGAAAGAAAGAAACAAACAAA [CACACA_negctrl_site1198] | 6.43 |
| AATACTTTTTTCTGTACACACTTGATTTACTATAAT [CACACA_site5544] | 7.05 |
| TCCAATTGTTCTAGTGTGCACATAAATAAATCTCAT | 11 |
| TTCATATTCGATAAAGTGCATTAATTTTATTTATCA | 8.14 |
| AAATTAATGTATATGTGAAGCAAGGGATGCGGCAGA [CACACA_negctrl_site406] | 7.19 |
| ATATATATATATATATAATATATAATATATATATAT [CACACA_negctrl_site96] | 8.66 |
| CAATTATTGTAATGCATGCACTGAATATAAAAAGAA | 10.3 |
| TTTATATGTATTAAGTGTACACATATAATGTATTTT [XGTACX_site16] | 6.75 |
| TTTTTTTCTTTTTACATACACACAAAAAAATAAAAT [CACACA_site580] | 6.58 |
